In patent US20240228620A1 (BICARA THERAPEUTICS, published 2024):

Assays:
Assay in all cases: flow cytometry on CD3e knockout Jurkat cells
[1] = biological target: T1, BCA606 (MOR) (406 Format)
T1 construct: Trispecific multispecific protein against MSLN (MORab009 arm), CD3 and CD28

[2] = biological target: T2, BCA624 (MOR) (424 Format)
T2 construct: Trispecific multispecific protein against MSLN (MORab009 arm), CD3 and CD28

[3] = biological target: T3, BCA605 (MOR) (405 Format)
T3 construct: Trispecific multispecific protein against MSLN (MORab009 arm), CD3 and CD28

binding result [1]: binds
binding result [2]: binds
binding result [3]: binds
B1: CD28 expressed on the surface of CD3 knockout Jurkat cells (receptor)
chain: not shown
notes: Endogenous CD28 of Jurkat cells; also called CD28 on CD3 knock out Jurkat cells; CD3e knockout Jurkat cells
